{
  "source": "the supplement of paper PMC8728848",
  "binders": {"B1": {"name": "PitA (Streptococcus oralis), G3F8D8 (protein)", "chain": "MNIRFDFKKVQIIARRLVTLLAILFLCAPISLLNADSTTEPQTTLHKTITPISGQDDKYELSLDITSKLGTETQTDPLDVVLVADLSGSMQNQDVQSFDGRTISRIDALKNTLRGTNGRKGLIDTILSNSNNRLSMVGFGGKIDNKKVDQYWDGNKWRLFRPYWPYERMTKYYDGVSPWDDANTILGWSNNARAAKTAVYNMSIAGGNSIGTESGIGTGTNIGAGLTLANQLMGSARSNAKKVVILLSDGFANMVYDANGYTIYNYNNEDPNIETAPQWFWDRLNNNLNSLSYSLAPTLDGFYSIKFRYSNNVDSITSLQYYMRQHNASIPNEIFSANDEDQLRDSFKDITDKILPLGIHHVSIKDVLSKYVQLLPNGSSEFRVVKEKDGSSEILIENQVTFDTKTTSEGLVEVTAKFSPNYSLEDGARYVLKFTVTSSQEALDAIAGDKKLEAGDAEGSDVNKLYSNKGASVTYSYGIGNSQTKTKEYSDNPTFKPSDPLTVPVEVEWQGVTGARTVITADQPSNVELKLVQKNKNGGSDNQDYRKTNVNVSKNVSNETRNFEKVAKGYQYDLIAPDVPAFTKEIKNVGTESKPSFKVIYKQLPSLTIKKVLEAENNLNKEFRIKVKLTSPDSKPLNGTFGEITVVNGEAEIRVEKRKRWEGILSYLPRGTHYKVEEEAASTNGYHVTYENQEGDLNKDETSIVTNHKLPSLSVTKKVTGVFANLLKSFKITINIRDAQNSPLNGTYTATVNNKRTPLQFTNGRASIDLNKDQTIKIYGLPLDSHYTVEEESNSSRGYQVSYENQEGKLDGDKSATVTNNKNSVPETGVDFLSSTLMLGIILPLGGIFFTILLGYLVVHRRK"}},
  "assay_in_all_cases": "glycan array binding signal (z-score within array); higher = stronger binding",
  "details_in_all_cases": "glycan notation: IUPAC condensed, linker removed",
  "key": {"[1]": {"molecular_target": "Neu5Ac(a2-3)Gal(b1-3)[Neu5Ac(a2-6)]GlcNAc(b1-3)[Fuc(a1-3)[Gal(b1-4)]GlcNAc(b1-6)]Gal(b1-4)Glc", "in_short": "(§1)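 The binding signal is a Z-score computed within each array. Data were drawn from 3228 arrays in the Consortium for Functional Glycomics database, restricted to those with a known protein sequence. Scores were averaged over arrays of the same protein sequence at different concentrations or buffers, and over linkers, and negative values can be taken as non-binding.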"}, "[2]": {"molecular_target": "Neu5Ac(a2-3)Gal(b1-4)Glc", "in_short": "as §1"}, "[3]": {"molecular_target": "Neu5Ac(a2-3)Gal(b1-4)GlcNAc", "in_short": "as §1"}, "[4]": {"molecular_target": "Neu5Ac(a2-3)Gal(b1-4)GlcNAc(b1-2)Man", "in_short": "as §1"}, "[5]": {"molecular_target": "Neu5Ac(a2-3)Gal(b1-4)GlcNAc(b1-2)Man(a1-3)[GlcNAc(b1-2)Man(b1-4)GlcNAc(b1-2)Man(a1-6)]Man(b1-4)GlcNAc(b1-4)GlcNAc", "in_short": "as §1"}, "[6]": {"molecular_target": "Neu5Ac(a2-3)Gal(b1-4)GlcNAc(b1-2)Man(a1-3)[Neu5Ac(a2-3)Gal(b1-4)GlcNAc(b1-2)Man(a1-6)]Man(b1-4)GlcNAc(b1-4)[Fuc(a1-6)]GlcNAc", "in_short": "as §1"}, "[7]": {"molecular_target": "Neu5Ac(a2-3)Gal(b1-4)GlcNAc(b1-2)Man(a1-3)[Neu5Ac(a2-6)Gal(b1-4)GlcNAc(b1-2)Man(a1-6)]Man(b1-4)GlcNAc(b1-4)GlcNAc", "in_short": "as §1"}, "[8]": {"molecular_target": "Neu5Ac(a2-3)Gal(b1-4)GlcNAc(b1-2)[Neu5Ac(a2-3)Gal(b1-4)GlcNAc(b1-6)]Man(a1-6)[Neu5Ac(a2-3)Gal(b1-4)GlcNAc(b1-2)Man(a1-3)]Man(b1-4)GlcNAc(b1-4)GlcNAc", "in_short": "as §1"}, "[9]": {"molecular_target": "Neu5Ac(a2-3)Gal(b1-4)GlcNAc(b1-3)Gal", "in_short": "as §1"}, "[10]": {"molecular_target": "Neu5Ac(a2-3)Gal(b1-4)GlcNAc(b1-3)Gal(b1-3)GlcNAc", "in_short": "as §1"}, "[11]": {"molecular_target": "Neu5Ac(a2-3)Gal(b1-4)GlcNAc(b1-3)Gal(b1-4)GlcNAc", "in_short": "as §1"}, "[12]": {"molecular_target": "Neu5Ac(a2-3)Gal(b1-4)GlcNAc(b1-3)Gal(b1-4)GlcNAc(b1-3)Gal(b1-4)GlcNAc", "in_short": "as §1"}, "[13]": {"molecular_target": "Neu5Ac(a2-3)Gal(b1-4)GlcNAc(b1-3)Gal(b1-4)[Fuc(a1-3)]GlcNAc", "in_short": "as §1"}, "[14]": {"molecular_target": "Neu5Ac(a2-3)Gal(b1-4)GlcNAc(b1-3)GalNAc", "in_short": "as §1"}, "[15]": {"molecular_target": "Neu5Ac(a2-3)Gal(b1-4)GlcNAc(b1-3)[Neu5Ac(a2-3)Gal(b1-4)GlcNAc(b1-6)]GalNAc", "in_short": "as §1"}, "[16]": {"molecular_target": "Neu5Ac(a2-3)Gal(b1-4)GlcNAc(b1-6)GalNAc", "in_short": "as §1"}, "[17]": {"molecular_target": "Neu5Ac(a2-3)Gal(b1-4)GlcNAc(b1-6)[Gal(b1-3)]GalNAc", "in_short": "as §1"}, "[18]": {"molecular_target": "Neu5Ac(a2-3)Gal(b1-4)GlcNAc(b1-6)[Neu5Ac(a2-3)Gal(b1-3)]GalNAc", "in_short": "as §1"}, "[19]": {"molecular_target": "Neu5Ac(a2-3)Gal(b1-4)GlcNAc6S", "in_short": "as §1"}, "[20]": {"molecular_target": "Neu5Ac(a2-3)Gal(b1-4)[Fuc(a1-3)]GlcNAc", "in_short": "as §1"}, "[21]": {"molecular_target": "Neu5Ac(a2-3)Gal(b1-4)[Fuc(a1-3)]GlcNAc(b1-3)Gal", "in_short": "as §1"}, "[22]": {"molecular_target": "Neu5Ac(a2-3)Gal(b1-4)[Fuc(a1-3)]GlcNAc(b1-3)Gal(b1-4)GlcNAc", "in_short": "as §1"}, "[23]": {"molecular_target": "Neu5Ac(a2-3)Gal(b1-4)[Fuc(a1-3)]GlcNAc(b1-3)Gal(b1-4)[Fuc(a1-3)]GlcNAc(b1-3)Gal(b1-4)[Fuc(a1-3)]GlcNAc", "in_short": "as §1"}, "[24]": {"molecular_target": "Neu5Ac(a2-3)Gal(b1-4)[Fuc(a1-3)]GlcNAc(b1-3)GalNAc", "in_short": "as §1"}, "[25]": {"molecular_target": "Neu5Ac(a2-3)Gal(b1-4)[Fuc(a1-3)]GlcNAc(b1-6)[Gal(b1-3)]GalNAc", "in_short": "as §1"}, "[26]": {"molecular_target": "Neu5Ac(a2-3)Gal(b1-4)[Fuc(a1-3)]GlcNAc6S", "in_short": "as §1"}, "[27]": {"molecular_target": "Neu5Ac(a2-3)Gal6S(b1-4)GlcNAc", "in_short": "as §1"}, "[28]": {"molecular_target": "Neu5Ac(a2-3)Gal6S(b1-4)[Fuc(a1-3)]GlcNAc", "in_short": "as §1"}, "[29]": {"molecular_target": "Neu5Ac(a2-3)GalNAc", "in_short": "as §1"}, "[30]": {"molecular_target": "Neu5Ac(a2-3)GalNAc(b1-4)GlcNAc", "in_short": "as §1"}},
  "note": "The other results are listed elsewhere or left out.",
  "data": [
    {"binder": "B1", "values": [
      {"measurement": "glycan array binding signal (z-score)", "setting": "[1]", "value": -0.365},
      {"measurement": "glycan array binding signal (z-score)", "setting": "[2]", "value": -0.215},
      {"measurement": "glycan array binding signal (z-score)", "setting": "[3]", "value": -0.61},
      {"measurement": "glycan array binding signal (z-score)", "setting": "[4]", "value": 1.17},
      {"measurement": "glycan array binding signal (z-score)", "setting": "[5]", "value": -0.297},
      {"measurement": "glycan array binding signal (z-score)", "setting": "[6]", "value": -0.163},
      {"measurement": "glycan array binding signal (z-score)", "setting": "[7]", "value": -0.568},
      {"measurement": "glycan array binding signal (z-score)", "setting": "[8]", "value": 0.998},
      {"measurement": "glycan array binding signal (z-score)", "setting": "[9]", "value": -0.503},
      {"measurement": "glycan array binding signal (z-score)", "setting": "[10]", "value": -0.101},
      {"measurement": "glycan array binding signal (z-score)", "setting": "[11]", "value": -0.543},
      {"measurement": "glycan array binding signal (z-score)", "setting": "[12]", "value": -0.344},
      {"measurement": "glycan array binding signal (z-score)", "setting": "[13]", "value": -0.408},
      {"measurement": "glycan array binding signal (z-score)", "setting": "[14]", "value": -0.265},
      {"measurement": "glycan array binding signal (z-score)", "setting": "[15]", "value": -0.318},
      {"measurement": "glycan array binding signal (z-score)", "setting": "[16]", "value": -0.646},
      {"measurement": "glycan array binding signal (z-score)", "setting": "[17]", "value": 0.302},
      {"measurement": "glycan array binding signal (z-score)", "setting": "[18]", "value": -0.542},
      {"measurement": "glycan array binding signal (z-score)", "setting": "[19]", "value": -0.668},
      {"measurement": "glycan array binding signal (z-score)", "setting": "[20]", "value": -0.518},
      {"measurement": "glycan array binding signal (z-score)", "setting": "[21]", "value": -0.583},
      {"measurement": "glycan array binding signal (z-score)", "setting": "[22]", "value": 1.08},
      {"measurement": "glycan array binding signal (z-score)", "setting": "[23]", "value": 0.263},
      {"measurement": "glycan array binding signal (z-score)", "setting": "[24]", "value": 3.68},
      {"measurement": "glycan array binding signal (z-score)", "setting": "[25]", "value": 2.31},
      {"measurement": "glycan array binding signal (z-score)", "setting": "[26]", "value": -0.492},
      {"measurement": "glycan array binding signal (z-score)", "setting": "[27]", "value": -0.201},
      {"measurement": "glycan array binding signal (z-score)", "setting": "[28]", "value": -0.322},
      {"measurement": "glycan array binding signal (z-score)", "setting": "[29]", "value": -0.152},
      {"measurement": "glycan array binding signal (z-score)", "setting": "[30]", "value": -0.515}
    ]}
  ]
}
